Results taken from the supplement of paper PMC10126150.
Sequences with one replicate were seen in a single cluster, so their values are uncertain.
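Also: ATP exposure 15 min at 22 °C before imaging.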

The sequences below were run on ATP (assay: switch fluorescence ratio, 500 uM ATP over buffer (Cy3 cluster intensity, sum of 5 cycles each) (fold (ratio)); higher = stronger signal-on switching upon ATP binding; sequences stand for … in TCGTCGGCAGCGTCAGATGTGTATAAGAGACAGTTTTTTTTTTTTTTTTTTTTTTTTT…TC). Details: aptamer strand: ATP DNA aptamer (quencher-CACCTGGGGGAGTATTGCGGAGGAAGG + anchor), 100 nM annealed; ATP concentration: 500 uM; one replicate.
In short: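 Clusters carrying Cy3-labelled switching strands on a modified Illumina MiSeq flow-cell were annealed to 100 nM quencher-labelled ATP aptamer and imaged in selection buffer. They were imaged again after 15 min with 500 uM ATP at 22 °C, over five buffer/ATP cycles with NaOH stripping and re-annealing in between. For each cluster, the fluorescence ratio is the summed Cy3 intensity of the target cycles divided by that of the buffer cycles, averaged per switch-domain sequence. Clusters outside 100-1000 RFU were left out.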
For TTTCACATTA, the switch fluorescence ratio was 0.948.
Sequence TTTCAGACCG has a switch fluorescence ratio of 1.
TTTCAGGGTA showed a switch fluorescence ratio of 0.999.
TTTCAGTAGG was tested, and the switch fluorescence ratio was 0.995.
For TTTCAGTGCG, the switch fluorescence ratio was 0.985.
For TTTCATCAGT, the switch fluorescence ratio was 0.997.
TTTCATCTAT was tested, and the switch fluorescence ratio was 0.996.
TTTCCAGGTC was tested, and the switch fluorescence ratio was 1.08.
With TTTCCCCAGG the switch fluorescence ratio was 4.68.
TTTCCCCGGA was tested, and the switch fluorescence ratio was 1.01.
TTTCCCGATC showed a switch fluorescence ratio of 1.05.
Sequence TTTCCGTGCC has a switch fluorescence ratio of 3.11.
Sequence TTTCCTATCA has a switch fluorescence ratio of 0.991.
Sequence TTTCCTTTAG has a switch fluorescence ratio of 1.04.
Work on TTTCGAAT yielded a switch fluorescence ratio of 0.98.
Work on TTTCGACCTC yielded a switch fluorescence ratio of 1.1.
TTTCGCACGA showed a switch fluorescence ratio of 2.81.
Sequence TTTCGCTAGA has a switch fluorescence ratio of 1.01.
For TTTCGGATAT, the switch fluorescence ratio was 1.35.
Work on TTTCGGGA yielded a switch fluorescence ratio of 0.966.
TTTCGGTAAG was tested, and the switch fluorescence ratio was 0.998.
Sequence TTTCGTCTTC has a switch fluorescence ratio of 0.984.
TTTCGTGGAT gave a switch fluorescence ratio of 0.992.
TTTCGTGTTC was tested, and the switch fluorescence ratio was 1.
Sequence TTTCGTTCCA has a switch fluorescence ratio of 1.02.
TTTCGTTGCA gave a switch fluorescence ratio of 0.986.
For TTTCTAACTA, the switch fluorescence ratio was 1.01.
TTTCTACCAG gave a switch fluorescence ratio of 1.03.
TTTCTCAAAG showed a switch fluorescence ratio of 1.03.
Sequence TTTCTCCGAT has a switch fluorescence ratio of 1.
TTTCTCGGCG showed a switch fluorescence ratio of 1.05.
With TTTCTCTAGT the switch fluorescence ratio was 1.02.
TTTCTCTTTA showed a switch fluorescence ratio of 0.975.
With TTTCTTAAAC the switch fluorescence ratio was 0.98.
Sequence TTTCTTCTGT has a switch fluorescence ratio of 0.961.
TTTCTTGAGC showed a switch fluorescence ratio of 0.99.
TTTCTTTATA was tested, and the switch fluorescence ratio was 1.03.
TTTCTTTTAA showed a switch fluorescence ratio of 1.01.
With TTTGAAAAAT the switch fluorescence ratio was 1.01.
TTTGAAAGCG was tested, and the switch fluorescence ratio was 0.961.
In the case of TTTGACACTT, the switch fluorescence ratio was 1.03.
For TTTGACAGT, the switch fluorescence ratio was 0.992.
TTTGACATGA showed a switch fluorescence ratio of 1.05.
Work on TTTGACGAA yielded a switch fluorescence ratio of 0.988.
Work on TTTGACTGAA yielded a switch fluorescence ratio of 1.03.
For TTTGAGAGG, the switch fluorescence ratio was 1.
For TTTGAGGCTA, the switch fluorescence ratio was 1.
Sequence TTTGATGTGA has a switch fluorescence ratio of 1.09.
With TTTGATTGCC the switch fluorescence ratio was 0.992.
Work on TTTGCACTTG yielded a switch fluorescence ratio of 1.
For TTTGCCGCTT, the switch fluorescence ratio was 0.977.
For TTTGCGATGA, the switch fluorescence ratio was 1.07.
In the case of TTTGCTCCTG, the switch fluorescence ratio was 0.929.
TTTGCTGTAC gave a switch fluorescence ratio of 1.73.
Sequence TTTGGACTGA has a switch fluorescence ratio of 0.946.
TTTGGACTGC was tested, and the switch fluorescence ratio was 1.1.
Sequence TTTGGAGCTG has a switch fluorescence ratio of 1.04.
Sequence TTTGGCGA has a switch fluorescence ratio of 0.89.
TTTGGCGGG was tested, and the switch fluorescence ratio was 1.
For TTTGGGATGA, the switch fluorescence ratio was 1.03.
With TTTGGGTGTA the switch fluorescence ratio was 1.01.
TTTGGTCAGG showed a switch fluorescence ratio of 1.
TTTGGTGCAC showed a switch fluorescence ratio of 0.991.
In the case of TTTGGTGGG, the switch fluorescence ratio was 0.995.
Work on TTTGGTTAAA yielded a switch fluorescence ratio of 1.02.
TTTGTAAAAC showed a switch fluorescence ratio of 1.02.
In the case of TTTGTACCCG, the switch fluorescence ratio was 1.03.
TTTGTCCGCC gave a switch fluorescence ratio of 1.17.
With TTTGTCTCAT the switch fluorescence ratio was 1.
In the case of TTTGTGACTG, the switch fluorescence ratio was 1.05.
In the case of TTTGTGGAAT, the switch fluorescence ratio was 1.02.
With TTTGTGTGT the switch fluorescence ratio was 1.01.
In the case of TTTGTTACT, the switch fluorescence ratio was 1.
Sequence TTTGTTACTC has a switch fluorescence ratio of 0.964.
With TTTGTTATAC the switch fluorescence ratio was 1.31.
TTTGTTCAAA showed a switch fluorescence ratio of 1.03.
Sequence TTTGTTCCAC has a switch fluorescence ratio of 1.04.
In the case of TTTGTTTGCC, the switch fluorescence ratio was 0.994.
In the case of TTTTAACCAA, the switch fluorescence ratio was 1.04.
Sequence TTTTACGT has a switch fluorescence ratio of 1.02.
In the case of TTTTAGGT, the switch fluorescence ratio was 0.93.
With TTTTAGTCGC the switch fluorescence ratio was 1.09.
TTTTATACAA gave a switch fluorescence ratio of 0.937.
Sequence TTTTATGCCG has a switch fluorescence ratio of 1.04.
TTTTATTAAG was tested, and the switch fluorescence ratio was 1.01.
TTTTCAAGG was tested, and the switch fluorescence ratio was 1.01.
In the case of TTTTCACATG, the switch fluorescence ratio was 1.
With TTTTCACCAT the switch fluorescence ratio was 1.
In the case of TTTTCAGACT, the switch fluorescence ratio was 1.04.
Work on TTTTCCGGGA yielded a switch fluorescence ratio of 1.01.
TTTTCCTGCC gave a switch fluorescence ratio of 1.53.
With TTTTCGCAAT the switch fluorescence ratio was 6.63.
With TTTTCGCAGA the switch fluorescence ratio was 1.29.
Work on TTTTCTGCTC yielded a switch fluorescence ratio of 1.01.
TTTTGAATAT was tested, and the switch fluorescence ratio was 1.
TTTTGACACA was tested, and the switch fluorescence ratio was 0.919.
For TTTTGACTAA, the switch fluorescence ratio was 1.03.
For TTTTGAGGCG, the switch fluorescence ratio was 0.995.
TTTTGCTGAT was tested, and the switch fluorescence ratio was 0.957.
Work on TTTTGCTTAT yielded a switch fluorescence ratio of 0.954.
Sequence TTTTGGAACA has a switch fluorescence ratio of 0.996.
Sequence TTTTGGAACT has a switch fluorescence ratio of 0.988.
Work on TTTTGGACAA yielded a switch fluorescence ratio of 1.
Sequence TTTTGGCAGC has a switch fluorescence ratio of 1.08.
TTTTGTACTA gave a switch fluorescence ratio of 1.
TTTTGTTCGC was tested, and the switch fluorescence ratio was 1.02.
For TTTTTACCG, the switch fluorescence ratio was 1.08.
Sequence TTTTTACGCC has a switch fluorescence ratio of 1.03.
In the case of TTTTTACTGA, the switch fluorescence ratio was 1.01.
With TTTTTATAC the switch fluorescence ratio was 1.06.
TTTTTATCCT gave a switch fluorescence ratio of 1.04.
In the case of TTTTTCCCTC, the switch fluorescence ratio was 1.04.
Work on TTTTTCGATC yielded a switch fluorescence ratio of 0.949.
Sequence TTTTTCTAA has a switch fluorescence ratio of 1.
Sequence TTTTTCTGAC has a switch fluorescence ratio of 1.12.
Sequence TTTTTCTTAG has a switch fluorescence ratio of 0.985.
TTTTTGCACG was tested, and the switch fluorescence ratio was 1.04.
Work on TTTTTGCAGA yielded a switch fluorescence ratio of 1.01.
TTTTTGG gave a switch fluorescence ratio of 0.977.
For TTTTTGTA, the switch fluorescence ratio was 0.97.
For TTTTTGTACC, the switch fluorescence ratio was 1.03.
TTTTTGTCCT gave a switch fluorescence ratio of 0.994.
Work on TTTTTTAAA yielded a switch fluorescence ratio of 1.01.
TTTTTTCTAG was tested, and the switch fluorescence ratio was 1.03.
